Test [1] has as its system HSkMC (human skeletal muscle cells). Kind of test: cytotoxicity call (relative viability < 0.9). Conditions: 10 µM.
The subject of test [2] is HepG2. Kind of test: cytotoxicity call (relative viability < 0.9). Particulars: 10 µM.
Test [3] has as its system S. aureus RN4220. Kind of test: growth inhibition call (relative growth <= 0.2). Conditions: 50 µM.

The list shows a part of the results.

Take `C[C@@H]1CN([C@@H](C)CO)C(=O)c2cc(NC(=O)c3ccccc3)ccc2O[C@@H](C)CCCCO[C@@H]1CN(C)Cc1ccc(C(F)(F)F)cc1`: the cytotoxicity call in test [1] and in test [2] was “inactive” each time. Further, in test [3], the growth inhibition call was “inactive”.

With `C[C@@H]1CN([C@H](C)CO)C(=O)c2cccc(NS(=O)(=O)c3ccc(Cl)cc3)c2O[C@H]1CN(C)S(=O)(=O)c1cn(C)cn1`, the cytotoxicity call in test [1] and in test [2] was “inactive” in each case. Further, in test [3], the growth inhibition call is “inactive”.

Consider `C[C@@H]1CN([C@@H](C)CO)C(=O)c2cc(C#Cc3ccccn3)cnc2O[C@@H]1CN(C)C(=O)CCN1CCCCC1`, for which the cytotoxicity call in test [1] and in test [2] was “inactive” each time. In test [3], the growth inhibition call was “inactive”.

On to `COc1ccc(S(=O)(=O)N(C)C[C@H]2Oc3ccc(NS(=O)(=O)c4ccccc4)cc3CC(=O)N([C@@H](C)CO)C[C@@H]2C)cc1`, for which the cytotoxicity call in test [1] and in test [2] was “inactive” throughout. Further, the growth inhibition call in test [3] was “inactive”.

Turning to `C[C@@H]1CCCCO[C@H](CN(C)C(=O)Nc2ccc(C(F)(F)F)cc2)[C@H](C)CN([C@@H](C)CO)C(=O)c2cc(NC(=O)Nc3ccc(F)cc3)ccc2O1`, the cytotoxicity call in test [1] and in test [2] was “inactive” each time. Also, the growth inhibition call in test [3] was “inactive”.

With `Cc1noc(C)c1NC(=O)Nc1ccc2c(c1)CC(=O)N([C@@H](C)CO)C[C@@H](C)[C@@H](CN(C)S(=O)(=O)c1c(C)noc1C)O2`, the cytotoxicity call in test [1] and in test [2] was “inactive” each time. In addition, the growth inhibition call in test [3] is “inactive”.

As for `C[C@H]1CN([C@@H](C)CO)C(=O)c2cccc(NS(=O)(=O)c3cccs3)c2O[C@H]1CN(C)Cc1ccc(-c2ccccc2)cc1`, the cytotoxicity call in test [1] and in test [2] was “inactive” in each case. For the same compound, the growth inhibition call in test [3] was “inactive”.

Consider `Cc1ccc(S(=O)(=O)N(C)C[C@@H]2OCCCC[C@H](C)Oc3ccc(NC(=O)Nc4c(C)noc4C)cc3C(=O)N([C@H](C)CO)C[C@H]2C)cc1`, for which the cytotoxicity call in test [1] and in test [2] was “inactive” throughout. The growth inhibition call in test [3] was “inactive”.

For the compound `C[N+](C)(C)CCCCNC(=O)[C@@H]1C[C@@H]2C(=O)N[C@@H](CCCC[N+](C)(C)C)C(=O)N2[C@@H]1c1cccc(OCCO)c1`, the cytotoxicity call in test [1] and in test [2] was “inactive” in each case. The growth inhibition call in test [3] is “inactive”.

`C[C@H]1CN([C@@H](C)CO)C(=O)Cc2cc(NC(=O)CCN3CCOCC3)ccc2O[C@H]1CN(C)S(=O)(=O)c1ccc(F)cc1`: the cytotoxicity call in test [1] and in test [2] was “inactive” each time. Besides, the growth inhibition call in test [3] was “inactive”.

In the case of `CC(CN(C)C)CN1c2ccccc2Sc2ccccc21.O=C(O)C(O)C(O)C(=O)O` (stereo unspecified), in test [1], the cytotoxicity call is “inactive”. The cytotoxicity call in test [2] is “active”. In test [3], the growth inhibition call is “inactive”.

Take `COc1ccc(S(=O)(=O)Nc2cccc3c2O[C@@H](CN(C)S(=O)(=O)c2ccccc2)[C@@H](C)CN([C@@H](C)CO)C3=O)cc1`: the cytotoxicity call in test [1] and in test [2] was “inactive” in each case. Also, the growth inhibition call in test [3] is “inactive”.

The values above are taken from the antibiotic and cytotoxicity screens of Wong et al. (2023).
